Measurements as given in PubChem BioAssay AID445 (National Center for Advancing Translational Sciences (NCATS), 2006).
Among all 110,000 compounds or so, about 40 (0.04%) were called active. Inconclusive results, whose numbers are uncertain, are shown with a selection of clear calls. Calls come from the whole dose curve; as a rule, active = well fitted curve in the direction sought with a large enough effect in the signal ratio (not every such curve was filed as active); inconclusive = small, poorly fitted or top-dose-only effect, or a change in a side signal; inactive = flat fitted curve, though single readings scatter; the % refers to the signal ratio. Where the call is inconclusive, the potency comes from a doubtful curve fit.
Potency is the fitted concentration of half-maximal effect.

Experiment: IkB Signaling;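 for IkBa stabilization activation: 0% = basal untreated cells and 100% = reference inhibitor full response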
Conditions: ABC-DLBCL IkBa-CBG/CBR dual luciferase ratio (green luciferase fused to IkBa over red control in OCI-Ly3 lymphoma cells), 4 h; IkBa stabilization activation: at 57.1 µM (top of the series), scaled: untreated 0%, proteasome inhibitor 100% unless noted
Procedure, shortened: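 Curves were fitted separately to fusion (green), unfused (red) and ratio luminescence, then classed by r2, magnitude and activity. Cells: OCI-Ly3, 4 h compound plus doxycycline at 37C; 10 uM MG-132 defined full response.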
For COc1ccc(-c2c(C)c3cc(OC(=O)N4CCOCC4)ccc3oc2=O)cc1, the IkBa stabilization activation was inconclusive: 0.221% [signal inhibitor].
In the case of O=C(Nc1nc2ccc(Cl)cc2s1)c1ccc(Br)o1, the Potency is reported as inconclusive: 1.58 µM [signal inhibitor, full curve].
For CC(C)c1ccc(NC(=O)c2ccc3c(c2)CCCN3S(C)(=O)=O)cc1, the “IkBa stabilization activation” value was inactive: 0.687%.
With COc1ccc(-c2noc(CSc3nnc(-c4ccncc4)n3-c3ccc(F)cc3)n2)cc1OC the “IkBa stabilization activation” value was inactive: -4.2%.
In the case of O=C(Cn1cc(SCc2ccccc2)c2ccccc21)N1CCCCC1, the IkBa stabilization activation is reported as inconclusive: 4.32% [signal inhibitor].
For CCc1ccc(CNC(=O)CN(c2ccc(C)cc2)S(=O)(=O)N(C)C)cc1, the IkBa stabilization activation was inconclusive: 2.07% [signal inhibitor].
With N#Cc1c(-n2ncnc2-c2ccc(Br)cc2)sc2c1CCCCC2 the Potency was inconclusive: 12.6 µM [signal inhibitor, partial curve].
With CSc1ccc(CNC(=O)C2CCN(c3nnc(-n4cccc4CNc4ccc(C)cc4)s3)CC2)cc1 the IkBa stabilization activation was inconclusive: 1.54% [signal inhibitor].
With CCOC(=O)c1c(NC(=O)CSc2n[nH]c(-c3ccco3)n2)sc(C)c1C the IkBa stabilization activation was inconclusive: 1.44% [signal inhibitor].
With COCCNc1ncnc2ccc(-c3ccccc3OC)cc12 the IkBa stabilization activation was inactive: 3.07% [at 11.4 µM, scaled: untreated 0%, proteasome inhibitor 100%].
With O=c1oc(-c2cccs2)nc2c1cnn2-c1ccccc1 the IkBa stabilization activation was inconclusive: 6.6% [signal inhibitor].
For Cc1occc1C(=O)Nc1ccc2c(c1)CCC2, the “IkBa stabilization activation” value was inactive: 3.87%.
For O=C(COc1ccc([N+](=O)[O-])cc1)NCC1(N2CCOCC2)CCCCC1, the IkBa stabilization activation was inconclusive: -0.733% [signal inhibitor].
With Cc1cnc(CNc2ncnc3ccc(-c4c(C)noc4C)cc23)cn1 the IkBa stabilization activation was inconclusive: 13.4% [signal activator] [at 11.4 µM, scaled: untreated 0%, proteasome inhibitor 100%].
With O=C(NCc1ccco1)C1CCCN(S(=O)(=O)c2cccc3nonc23)C1 (centres undefined) the Potency was inconclusive: 25.1 µM [rising, partial curve].
For Oc1c(C(c2ccccc2F)N2CCCCC2)sc2nc(-c3ccco3)nn12 (centres undefined), the “IkBa stabilization activation” value was inactive: -1.76%.
In the case of CCSC[C@@H](N)C(=O)O, the IkBa stabilization activation is reported as inactive: 2.34% [at 11.4 µM, scaled: untreated 0%, proteasome inhibitor 100%].
For CC(C)CC(=O)Nc1ccc(S(=O)(=O)Nc2cc3c(cc2N2CCOCC2)n(C)c(=O)c(=O)n3C)cc1, the IkBa stabilization activation was inconclusive: 1.9% [signal inhibitor].
In the case of O=C(CCc1cn(Cc2ccccc2Cl)c2ccccc12)NC1CCCCC1, the IkBa stabilization activation is reported as inconclusive: -0.322% [signal inhibitor].
With CC(C)c1ccc(NC(=O)C2CCN(c3nc(-c4ccc(C(C)C)cc4)no3)CC2)cc1 the IkBa stabilization activation was inconclusive: 2.02% [signal inhibitor].
For CCCCc1nc2ccccc2n2c(-c3ccc(OC)cc3)c3c(=O)n(C)c(=O)n(C)c3c12, the IkBa stabilization activation was inconclusive: 9.24% [signal inhibitor].
For Cc1c(C(=O)N2CCC(C)CC2)c(S(=O)(=O)NCc2ccc(Br)cc2)c(C)n1C, the IkBa stabilization activation was inconclusive: -0.149% [signal inhibitor].
In the case of COc1ccc(CNC(=O)c2cc(-c3cccc(Cl)c3)on2)cc1, the IkBa stabilization activation is reported as inconclusive: 7.79% [signal inhibitor].
For Cc1nc2sccn2c(=O)c1CCN1CCC(=C(c2ccc(F)cc2)c2ccc(F)cc2)CC1, the IkBa stabilization activation was inconclusive: -4.59% [signal inhibitor].
In the case of O=C(Cc1ccccc1F)Nc1nc(-c2cccs2)cs1, the IkBa stabilization activation is reported as inconclusive: 7.31% [signal inhibitor].
For COc1ccc(Nc2nc3c(S(=O)(=O)c4ccccc4)nnn3c3ccc(Cl)cc23)c(OC)c1, the “IkBa stabilization activation” value was inactive: 1.41%.
With Fc1ccc(-c2cc(-c3nc(-c4ccccc4)no3)[nH]n2)cc1 the Potency was inconclusive: 0.0631 µM [signal inhibitor, full curve, poor fit].
In the case of CCOC(=O)c1cc(-c2ccc(F)cc2)n(CC(=O)Nc2nccs2)c1C, the IkBa stabilization activation is reported as inconclusive: 4.38% [signal inhibitor].
In the case of Cc1cccc(N2CCN(CCNC(=O)c3cc4c(s3)CS(=O)(=O)C4)CC2)c1C, the IkBa stabilization activation is reported as inconclusive: 2.7% [signal inhibitor].
For COc1ccccc1N1CCN(CCNC(=O)Nc2cccc(C)c2C)CC1, the IkBa stabilization activation was inconclusive: 0.833% [signal inhibitor].
For CCOc1ccc(C(=O)Nc2ccc(Cl)cn2)cc1Cl, the “IkBa stabilization activation” value was inactive: 1.18%.
With COc1ccc(NC(=O)N2CCCC3(CCN(C(=O)c4cccc(F)c4)CC3)C2)cc1 the IkBa stabilization activation was inactive: -0.459% [at 11.4 µM, scaled: untreated 0%, proteasome inhibitor 100%].
With CCc1c(C)c2cc(Cl)c(O)c(CN(C)C)c2oc1=O the “IkBa stabilization activation” value was inactive: -3.04%.
For Cc1ccccc1CNC(=O)c1cccc(NC(=O)c2nsc3ccccc23)c1, the IkBa stabilization activation was inconclusive: 7.33% [signal inhibitor].
With COc1ccccc1OCC(=O)Nc1nnc(-c2ccco2)s1 the Potency was inconclusive: 12.6 µM [signal inhibitor, partial curve].
In the case of COc1ccccc1C1=NS(=O)(=O)N(C)C(C(=O)Nc2cc(OC)c(OC)c(OC)c2)=C1, the Potency is reported as inconclusive: 31.6 µM [signal inhibitor, partial curve].
With Cc1nc2nc(SCC(=O)Nc3cccc(Cl)c3)nn2c(C)c1Cc1ccccc1 the IkBa stabilization activation was inconclusive: 8.53% [signal inhibitor].
In the case of COc1ccc(NC(=O)c2cnc(C)cn2)cc1-n1cnnn1, the “IkBa stabilization activation” value is reported as inactive: 0.627%.
With CN(C(=O)CSc1nc2ccc(NC(=O)c3ccccc3F)cc2s1)c1ccccc1 the IkBa stabilization activation was inconclusive: 2.57% [signal inhibitor].
For CCCCn1cc(S(=O)(=O)c2ccc(OCC)cc2)c(=O)c2cc(OC)c(OC)cc21, the IkBa stabilization activation was inconclusive: 0.78% [signal inhibitor].
For Cc1cc2n(n1)C(c1ccc(O)cc1)Nc1ccccc1-2 (centres undefined), the IkBa stabilization activation was inconclusive: 2.99% [signal inhibitor].
For CCOc1ccc(C2C(=O)N(C3CCCCCC3)CC(=O)N2CCC2=CCCCC2)cc1OC (centres undefined), the “IkBa stabilization activation” value was inactive: 2.25%.
In the case of CCOc1ccc(CNC(=O)Cn2nc(C)n3cccc3c2=O)cc1, the IkBa stabilization activation is reported as inconclusive: 5.92% [signal inhibitor].
For Cc1ccc(NC(=O)CN(CCc2ccccc2)S(=O)(=O)c2ccccc2)c(C)c1, the IkBa stabilization activation was inconclusive: 1.31% [signal inhibitor].
In the case of CCOc1ccc2nc(N3CCC(C(=O)Nc4nnc(CC)s4)CC3)sc2c1, the “IkBa stabilization activation” value is reported as inactive: 6.68%.
With COc1cc(NC(=O)c2noc3c2CCC3)c(OC)cc1Cl the IkBa stabilization activation was inconclusive: 6.15% [signal inhibitor].
For Cc1cccc(/N=C/c2c(O)c3ccccc3oc2=O)n1, the IkBa stabilization activation was inconclusive: 8.25% [signal inhibitor].
In the case of Cc1ccc2[nH]c3c(=O)n(CCCN4CCOCC4)cnc3c2c1, the “IkBa stabilization activation” value is reported as inactive: -1.14%.
For COc1ccc(N2CCN(CC(O)COc3ccc(C)cc3C)CC2)cc1 (centres undefined), the IkBa stabilization activation was inconclusive: 4.79% [signal inhibitor].
In the case of Cc1ccc(CNC(=O)CCS(=O)(=O)c2cc3c(cc2Cl)NC(=O)CO3)cc1, the IkBa stabilization activation is reported as inconclusive: -0.139% [signal inhibitor].
For Cc1ccc(Cl)cc1N1CCN(C(=O)CN2C(=O)COc3ccc(S(=O)(=O)N4CCC(C)CC4)cc32)CC1, the IkBa stabilization activation was inconclusive: 0.646% [signal inhibitor].
For O=C(NCc1ccc(Cl)cc1)c1ccc(NC(=O)N2CC3CCCN3c3ccccc32)cc1 (centres undefined), the IkBa stabilization activation was inconclusive: 0.321% [signal inhibitor].
With Cc1cc(=O)cc(C)n1-c1ccccc1N1CCOCC1 the “IkBa stabilization activation” value was inactive: 2.75%.
With O=C(NCc1ccc(F)cc1)c1cc(Sc2ccc(F)cc2F)nc2ccccc12 the IkBa stabilization activation was inconclusive: 0.926% [signal inhibitor].
For N#Cc1c(NC(=O)c2nc3ncccn3n2)sc2c1CCCCC2, the “IkBa stabilization activation” value was inactive: 0.902%.
For CN1[C@@H]2CC(OC(=O)[C@H](CO)c3ccccc3)C[C@@H]1[C@H]1O[C@H]12 (some centres undefined), the “IkBa stabilization activation” value was inactive: -0.153%.
With O=S(=O)(NCc1ccccc1Cl)c1ccc(-c2cnc(C3CC3)o2)cc1 the IkBa stabilization activation was inconclusive: 12.4% [signal inhibitor].
In the case of COc1ccc(N2C(=O)CSC23C(=O)N(Cc2ccccc2F)c2ccccc23)cc1Cl (centres undefined), the IkBa stabilization activation is reported as inconclusive: 0.54% [signal inhibitor].
For COc1ccc(-c2cn3cccnc3n2)cc1NC(=O)COc1ccccc1, the “IkBa stabilization activation” value was inactive: -0.881%.
In the case of COc1cccc(-c2nc3ccc(O)cc3c(=O)o2)c1, the Potency is reported as inconclusive: 20 µM [signal inhibitor, partial curve].
With CCC1=Nc2cc(C(=O)NCc3ccccc3OC)ccc2Sc2ccc(Cl)cc21 the IkBa stabilization activation was inconclusive: 7.19% [signal inhibitor].
For COCCNc1ncnc2c1cnn2-c1cc(Cl)ccc1C, the IkBa stabilization activation was inconclusive: -1.08% [signal inhibitor].
With CCC(=O)N1c2ccccc2CC1C(=O)NCCc1ccccc1Cl (centres undefined) the “IkBa stabilization activation” value was inactive: -0.436%.
For Cc1ccc(S(=O)(=O)C2(C(=O)Nc3ccc(C)c(Cl)c3)CC2)cc1, the “IkBa stabilization activation” value was inactive: 3.4%.
With COc1ccc2[nH]c(=O)c(CN(CC3CCCO3)C(=O)Nc3ccc(F)cc3)cc2c1 (centres undefined) the IkBa stabilization activation was inconclusive: -0.404% [signal inhibitor].
For C=C(C)COc1ccc(-c2nc(N)ncc2Oc2ccc(OC)cc2)c(O)c1, the IkBa stabilization activation was inconclusive: 5.42% [signal inhibitor].
With Cc1occc1-c1nnc(SCC(=O)NCc2ccc3c(c2)OCO3)n1CC(C)C the “IkBa stabilization activation” value was inactive: 0.0511%.
For CC(C)Cn1c(=O)c(C(=O)Nc2ccccc2S(N)(=O)=O)c(O)c2ccccc21, the IkBa stabilization activation was inconclusive: -1.4% [signal inhibitor].
With CCOC(=O)c1ccc(S(=O)(=O)Nc2ccccc2-c2nnn(CC)n2)cc1 the IkBa stabilization activation was inconclusive: 1.79% [signal inhibitor].
